Reference: PubChem BioAssay AID330 (DTP/NCI, 2004)
Values joined by “and” are separate entries in the source; they are usually repeats but may differ in a detail not shown here. Equal entries are not always repeated. The source gives many values for each of these; only a part stands here. Toxic doses and inconclusive results are not listed. How the source made its calls: active means survival T/C of 150% or more; inactive means T/C below 125% in these data.

Tested on: P388 leukemia ip, CD2F1 mice, survival T/C
Experiment: NCI In Vivo Anticancer Drug Screen. Data for tumor model P388 Leukemia (intraperitoneal) in CD2F1 (CDF1) mice
Details: endpoint: median survival time, higher = longer survival
How it was run: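 Mice carrying the transplanted tumor received test compound or vehicle. Survival was recorded in each group, and the value is the treated-group measurement divided by that of the vehicle-treated control group.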

Measured: T/C

N[C@@H](Cc1ccc(N(CCCl)CCCl)cc1)C(=O)O
active: dose: 0.5 mg/kg/injection, schedule: Q01DX009 (ip), vehicle: Klucel (hydroxypropylcellulose) (HPC) 303 % of control | dose: 2.0 mg/kg/injection, schedule: Q01DX005 (ip), vehicle: water 267 % of control | dose: 2.0 mg/kg/injection, schedule: Q01DX009 (ip), vehicle: Klucel (hydroxypropylcellulose) (HPC) 303 % of control | dose: 2.0 mg/kg/injection, schedule: Q01DX009 (ip), vehicle: saline 259 % of control | dose: 2.5 mg/kg/injection, schedule: Q01DX009 (ip), vehicle: saline 309 % of control | dose: 3.0 mg/kg/injection, schedule: Q01DX005 (ip), vehicle: saline 409 % of control | dose: 4.0 mg/kg/injection, schedule: Q01DX005 (ip), vehicle: water 267 % of control | dose: 4.0 mg/kg/injection, schedule: Q01DX009 (ip), vehicle: saline 381 % of control and 390 % of control | dose: 4.0 mg/kg/injection, schedule: Q01DX009 (ip), vehicle: suspension in saline 288 % of control | dose: 4.5 mg/kg/injection, schedule: Q04DX003 (ip), vehicle: saline 310 % of control | dose: 4.5 mg/kg/injection, schedule: Q04DX003 (ip), vehicle: water 300 % of control | dose: 5.4 mg/kg/injection, schedule: Q04DX002 (ip), vehicle: saline 394 % of control and 416 % of control | dose: 5.4 mg/kg/injection, schedule: Q04DX003 (ip), vehicle: saline 266 % of control and 292 % of control | dose: 5.6 mg/kg/injection, schedule: Q04DX003 (ip), vehicle: saline 290 % of control | dose: 6.0 mg/kg/injection, schedule: Q01DX005 (ip), vehicle: saline 319 % of control and 409 % of control | dose: 7.3 mg/kg/injection, schedule: Q04DX003 (ip), vehicle: saline 525 % of control | dose: 7.5 mg/kg/injection, schedule: Q01DX001 (ip), vehicle: other 293 % of control | dose: 7.5 mg/kg/injection, schedule: Q04DX003 (ip), vehicle: distilled water + Tween-80 = 277 % of control | dose: 8.0 mg/kg/injection, schedule: Q01DX001 (ip), vehicle: suspension in saline 275 % of control | dose: 8.0 mg/kg/injection, schedule: Q01DX005 (ip), vehicle: water 267 % of control | dose: 8.0 mg/kg/injection, schedule: Q01DX009 (ip), vehicle: suspension in saline 285 % of control | dose: 8.0 mg/kg/injection, schedule: Q04DX003 (ip), vehicle: saline 267 % of control and 276 % of control and 412 % of control | dose: 8.0 mg/kg/injection, schedule: Q04DX003 (ip), vehicle: water 297 % of control | dose: 8.4 mg/kg/injection, schedule: Q04DX003 (ip), vehicle: saline 381 % of control | dose: 9.0 mg/kg/injection, schedule: Q04DX002 (ip), vehicle: saline 394 % of control and 409 % of control and 416 % of control | dose: 9.0 mg/kg/injection, schedule: Q04DX003 (ip), vehicle: saline 403 % of control and 420 % of control | dose: 10.0 mg/kg/injection, schedule: Q01DX001 (ip), vehicle: other 274 % of control and 412 % of control | dose: 11.0 mg/kg/injection, schedule: Q04DX003 (ip), vehicle: saline 315 % of control | dose: 12.0 mg/kg/injection, schedule: Q04DX003 (ip), vehicle: saline 441 % of control | dose: 15.0 mg/kg/injection, schedule: Q01DX001 (ip), vehicle: other 412 % of control and 588 % of control | dose: 16.0 mg/kg/injection, schedule: Q01DX001 (ip), vehicle: suspension in saline 275 % of control | dose: 16.0 mg/kg/injection, schedule: Q01DX009 (ip), vehicle: suspension in saline 285 % of control | dose: 22.5 mg/kg/injection, schedule: Q01DX001 (ip), vehicle: other 588 % of control | dose: 22.5 mg/kg/injection, schedule: Q01DX001 (ip), vehicle: saline 436 % of control
inactive: dose: 6.0 mg/kg/injection, schedule: Q01DX009 (ip), vehicle: Klucel (hydroxypropylcellulose) (HPC) 87 % of control | dose: 15.0 mg/kg/injection, schedule: Q04DX003 (ip), vehicle: distilled water + Tween-80 = 95 % of control | dose: 16.0 mg/kg/injection, schedule: Q04DX003 (ip), vehicle: saline 93 % of control | dose: 16.5 mg/kg/injection, schedule: Q04DX003 (ip), vehicle: saline 90 % of control | dose: 20.0 mg/kg/injection, schedule: Q04DX003 (iv), vehicle: saline 87 % of control | dose: 24.0 mg/kg/injection, schedule: Q04DX003 (ip), vehicle: saline 61 % of control
